Some of the results follow. Values were computed here from the reads of four pooled replicates and scatter widely.
Each sequence was assayed against T1, Pho4 (S. cerevisiae) (UniProt P07270) (assay: relative binding free energy (BET-seq); higher = weaker binding). Conditions: reference: library average.
T1 sequence: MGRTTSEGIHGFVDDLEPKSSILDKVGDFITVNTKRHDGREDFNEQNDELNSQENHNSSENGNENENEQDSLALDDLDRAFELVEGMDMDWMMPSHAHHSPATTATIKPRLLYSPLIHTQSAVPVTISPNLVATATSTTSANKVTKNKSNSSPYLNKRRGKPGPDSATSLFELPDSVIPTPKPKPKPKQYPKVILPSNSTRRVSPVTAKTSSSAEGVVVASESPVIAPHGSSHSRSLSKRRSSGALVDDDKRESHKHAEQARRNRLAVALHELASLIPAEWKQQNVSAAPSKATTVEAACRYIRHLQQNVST

| Sequence | relative binding free energy |
| --- | --- |
| GTAACCACGTGTTTTT | 0.1 kcal/mol |
| GAAATCACGTGGGGGT | 0.13 kcal/mol |
| GGACGCACGTGTGGTA | 0.02 kcal/mol |
| CTTATCACGTGTAAGG | 0.09 kcal/mol |
| TGTCGCACGTGTAAGG | 0.01 kcal/mol |
| GTGGTCACGTGGTACG | 0.03 kcal/mol |
| TTTTGCACGTGACGTG | 0.1 kcal/mol |
| GGGGGCACGTGGGGCA | -0.2 kcal/mol |
| GCTTGCACGTGGTAGT | -0.02 kcal/mol |
| TGAACCACGTGGGGTG | -0.24 kcal/mol |
| GATTTCACGTGGGGAG | 0.3 kcal/mol |
| CTTGGCACGTGGGGGG | -0.2 kcal/mol |
| TCGGTCACGTGGCTGG | -0.01 kcal/mol |
| TTCTGCACGTGGAGTC | 0.12 kcal/mol |
| TGTGCCACGTGGGTAT | -0.19 kcal/mol |
| GCTGCCACGTGTGGGG | -0.08 kcal/mol |
| GGCATCACGTGGTGGC | 0.2 kcal/mol |
| GTTGGCACGTGCAAGG | -0.12 kcal/mol |
| TTACGCACGTGTGATG | -0.13 kcal/mol |
| GTAGTCACGTGATCGT | 0.22 kcal/mol |
| TAAGTCACGTGTTTAG | 0.2 kcal/mol |
| TATTACACGTGATGGA | 0.17 kcal/mol |
| GTAAGCACGTGTTTCT | 0.1 kcal/mol |

| Sequence | relative binding free energy |
| --- | --- |
| TCAGTCACGTGTAGTA | 0.07 kcal/mol |
| CTTAGCACGTGGATTG | 0.13 kcal/mol |
| GTGTACACGTGATGCG | 0.11 kcal/mol |
| AGCAGCACGTGAATGG | 0.24 kcal/mol |
| TTTAACACGTGCGTTA | -0.09 kcal/mol |
| CATTTCACGTGAGTAT | 0.43 kcal/mol |
| TCGTTCACGTGGTTGC | 0.27 kcal/mol |
| GCTTGCACGTGAGGAA | 0.36 kcal/mol |
| AGGTTCACGTGGTTGT | 0.29 kcal/mol |
| TAAAGCACGTGTGATG | -0.15 kcal/mol |
| TATTACACGTGAGTAG | 0.34 kcal/mol |
| GGGCTCACGTGCGTGG | 0.14 kcal/mol |
| AACAGCACGTGTGTGG | 0.07 kcal/mol |
| TGCTTCACGTGTTCTT | 0.37 kcal/mol |
| GGTAGCACGTGCTTGA | -0.13 kcal/mol |
| TATGCCACGTGGGGAA | -0.24 kcal/mol |
| ATAAGCACGTGTAGAG | -0.06 kcal/mol |
| TTATTCACGTGGCTCT | 0.13 kcal/mol |
| TTTTACACGTGGTTAG | 0.06 kcal/mol |
| GAAAGCACGTGTTCGG | 0.06 kcal/mol |
| GGTGCCACGTGGGGTC | -0.26 kcal/mol |
| GAAGTCACGTGTTGTG | 0.28 kcal/mol |
| GTAGGCACGTGCGATT | 0.11 kcal/mol |

| Sequence | relative binding free energy |
| --- | --- |
| AGAGTCACGTGGAGGA | 0.2 kcal/mol |
| TGTGTCACGTGTACTC | 0.11 kcal/mol |
| AGGAGCACGTGGGGAG | -0.19 kcal/mol |
| TTGGTCACGTGTATAG | 0.18 kcal/mol |
| TCATGCACGTGATGGT | 0 kcal/mol |
| AGTGGCACGTGTCTAG | -0.12 kcal/mol |
| GGATCCACGTGGTGTG | -0.06 kcal/mol |
| GTGCCCACGTGTGGGA | -0.07 kcal/mol |
| TAATTCACGTGTGAAT | 0.21 kcal/mol |
| GGCAACACGTGGGGGC | -0.1 kcal/mol |
| TTAGGCACGTGTCTGG | -0.21 kcal/mol |
| GGTTGCACGTGCTGTT | -0.02 kcal/mol |
| GTTGTCACGTGAGCTG | 0.36 kcal/mol |
| TATGTCACGTGTAGTG | 0.19 kcal/mol |
| TTAAGCACGTGGCTGG | -0.14 kcal/mol |
| CGATGCACGTGGATGT | -0.1 kcal/mol |
| GTCTTCACGTGTTTTC | 0.33 kcal/mol |
| GTATGCACGTGAGGCT | 0.2 kcal/mol |
| GGCAGCACGTGAGGGG | 0.22 kcal/mol |
| GTCTTCACGTGGTTAT | 0.33 kcal/mol |
| GGAGGCACGTGAGCGT | 0.14 kcal/mol |
| TGGCGCACGTGGCGCG | -0.14 kcal/mol |
| GCGTTCACGTGTCGGG | 0.39 kcal/mol |

| Sequence | relative binding free energy |
| --- | --- |
| GGCGACACGTGGGTGA | -0.17 kcal/mol |
| TACGTCACGTGGTTCG | 0.01 kcal/mol |
| GCTGGCACGTGAGGTT | 0.18 kcal/mol |
| ATTGCCACGTGGTCGG | -0.27 kcal/mol |
| AATCTCACGTGGATGT | 0.17 kcal/mol |
| CTATACACGTGTTTTT | 0 kcal/mol |
| GTTAACACGTGCGGTG | 0.1 kcal/mol |
| TCGCACACGTGTGGGG | 0.04 kcal/mol |
| ATATGCACGTGGTGGG | -0.1 kcal/mol |
| TTATCCACGTGTATGT | 0.07 kcal/mol |
| TGGAGCACGTGTGCAG | -0.14 kcal/mol |
| TGGTACACGTGGCGCG | -0.01 kcal/mol |
| AAGTTCACGTGTTGGT | 0.18 kcal/mol |
| GATTTCACGTGGAGCT | 0.45 kcal/mol |
| ATCATCACGTGAGGGG | 0.33 kcal/mol |
| GTGTTCACGTGAAAGG | 0.34 kcal/mol |
| GCGTACACGTGGGGAA | 0.01 kcal/mol |
| GTGAGCACGTGGGGCT | -0.21 kcal/mol |
| TTATGCACGTGACTTG | 0.07 kcal/mol |
| TCTGGCACGTGGGGAT | -0.06 kcal/mol |
| GTGAGCACGTGATGTA | 0.05 kcal/mol |
| TTGATCACGTGGCGCG | 0.04 kcal/mol |
| TGCTACACGTGTGTGG | 0.1 kcal/mol |

| Sequence | relative binding free energy |
| --- | --- |
| TAGTGCACGTGTGGGG | -0.04 kcal/mol |
| GTTAACACGTGTAAGA | 0.23 kcal/mol |
| TGTTGCACGTGGTGGA | 0 kcal/mol |
| TTATACACGTGTGCGA | -0.02 kcal/mol |
| GTTCTCACGTGATGAG | 0.33 kcal/mol |
| AAAGTCACGTGGAAGG | 0.33 kcal/mol |
| TTCAGCACGTGCGGGT | -0.07 kcal/mol |
| GAAGGCACGTGTAGGG | -0.09 kcal/mol |
| AATGTCACGTGTGCTT | 0.02 kcal/mol |
| GTTGTCACGTGAAAGA | 0.28 kcal/mol |
| GTGTTCACGTGCGCTG | 0.22 kcal/mol |
| AATGGCACGTGACTGG | 0.08 kcal/mol |
| GGGGTCACGTGCTTAG | 0.05 kcal/mol |
| CGTGCCACGTGGTGTT | -0.14 kcal/mol |
| CGTGGCACGTGGTCAT | -0.15 kcal/mol |
| TGGGGCACGTGAGCTC | 0.21 kcal/mol |
| ATTTACACGTGGTTTA | 0.01 kcal/mol |
| GGAGGCACGTGTCTAG | -0.16 kcal/mol |
| AACAGCACGTGGGTGG | -0.17 kcal/mol |
| GTTAACACGTGTCTTT | -0.05 kcal/mol |
| TTGGCCACGTGGTGCT | -0.12 kcal/mol |
| GTTCTCACGTGATGAT | 0.31 kcal/mol |
| TGCAGCACGTGTGGAG | 0.05 kcal/mol |

Reference: the BET-seq Pho4 binding data (Le et al. 2018)
